# The full ranking holds about 33,000 sequences; the median of “E-score (-0.5 to 0.5)” is about -0.035, and the highest 2% start at about 0.35. This is one part of the list.
# Biological target: T1, Pdr3 (UniProt P33200)
# T1 sequence: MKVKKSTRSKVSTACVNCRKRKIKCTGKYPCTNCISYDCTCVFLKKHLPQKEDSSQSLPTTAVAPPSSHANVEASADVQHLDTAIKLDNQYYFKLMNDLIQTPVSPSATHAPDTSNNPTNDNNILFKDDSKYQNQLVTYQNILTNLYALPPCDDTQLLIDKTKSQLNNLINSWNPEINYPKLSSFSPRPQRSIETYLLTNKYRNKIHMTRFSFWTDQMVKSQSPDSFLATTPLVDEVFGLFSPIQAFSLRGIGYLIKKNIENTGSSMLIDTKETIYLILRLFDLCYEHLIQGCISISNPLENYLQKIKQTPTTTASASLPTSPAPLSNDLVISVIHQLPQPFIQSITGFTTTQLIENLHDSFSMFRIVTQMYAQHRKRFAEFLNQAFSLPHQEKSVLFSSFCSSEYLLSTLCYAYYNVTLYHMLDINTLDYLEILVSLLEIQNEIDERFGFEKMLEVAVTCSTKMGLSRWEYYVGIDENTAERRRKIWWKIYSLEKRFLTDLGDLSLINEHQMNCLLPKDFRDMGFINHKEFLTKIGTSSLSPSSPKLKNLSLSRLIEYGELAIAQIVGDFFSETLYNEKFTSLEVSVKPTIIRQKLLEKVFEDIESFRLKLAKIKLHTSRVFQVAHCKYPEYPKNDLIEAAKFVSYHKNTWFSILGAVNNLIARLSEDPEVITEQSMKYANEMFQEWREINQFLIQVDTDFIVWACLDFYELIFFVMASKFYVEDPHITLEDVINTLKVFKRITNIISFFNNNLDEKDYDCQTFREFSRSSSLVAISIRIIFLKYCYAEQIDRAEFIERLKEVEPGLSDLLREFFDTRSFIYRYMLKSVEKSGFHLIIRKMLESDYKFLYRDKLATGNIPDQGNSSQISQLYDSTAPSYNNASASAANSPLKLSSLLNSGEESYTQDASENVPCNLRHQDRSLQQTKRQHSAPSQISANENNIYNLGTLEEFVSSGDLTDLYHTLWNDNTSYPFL
# Experiment: PBM E-score (8-mer binding enrichment) (E-score (-0.5 to 0.5)); higher = stronger / more preferred TF binding; most listed sequences are background and not binding sites
# Settings: protein concentration: 200 nM; construct: GST-full length
# Description: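 Universal 'all 10-mer' protein binding microarrays (Agilent AMADID 015681) probed with GST-tagged S. cerevisiae TFs (full-length or DBD) made by in vitro transcription/translation (PURExpress), about 100-200 nM. Bound TF was detected with fluorescent anti-GST. Each ungapped 8-mer (which stands for itself and its reverse complement) is scored by the PBM enrichment score (E-score), a modified Wilcoxon-Mann-Whitney statistic from -0.5 to +0.5, computed with the Universal PBM Analysis Suite. Scale: above 0.35 generally sequence-specific binding.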
row,Sequence,PBM E-score
1,CGACTTAC,0.0129
2,AATCGCAA,0.00128
3,CCTTCGTA,-0.14
4,CTTTCGGC,0.122
5,CACATCTG,-0.154
6,AGTACGGG,-0.0162
7,TAAGCTAA,-0.098
8,ATACCGGC,0.28
9,CTGTTTAA,-0.0465
10,TCTGGTAA,-0.0417
11,CGATAGTC,-0.0106
12,CGTGGCAA,-0.00986
13,TCATTTAA,-0.0612
14,GTACCGAC,0.0628
15,AGAACTCT,-0.263
16,AGGCACCG,-0.0476
17,GAGAGGCA,0.0187
18,CCACACCA,-0.188
19,GTCGCCAC,-0.192
20,AAGTAAAC,0.0413
21,ATGGATAC,-0.0299
22,AAACAAAG,0.0976
23,GTGGCCTA,-0.101
24,CCCTTTCA,-0.208
25,ATTAAGGC,-0.093

row,Sequence,PBM E-score
1,CACTTTAC,-0.12
2,CTAATCAA,0.0558
3,CGTCTAAC,0.002
4,AGGACGCC,-0.101
5,CAGCGAAA,-0.0644
6,ATGGGGTG,-0.0791
7,GGTTACGA,-0.134
8,TTGATAAA,0.0182
9,ATAACGGG,0.0143
10,ATGAATCA,-0.0384
11,GACAAGTC,-0.114
12,CCGTATCA,0.22
13,GCTAATAC,0.114
14,CTCTTCCA,-0.0819
15,ACATTATA,0.0218
16,CACGGGGA,0.247
17,ATTACAAG,-0.105
18,CGAGCTCA,0.197
19,CAGGTAAG,-0.157
20,AGGCGGTA,-0.165
21,GTAAGCGA,-0.108
22,CCATAAAC,-0.137
23,TCCGAGAA,0.352
24,GAATGACA,-0.059
25,AATAGCGT,0.0358

row,Sequence,PBM E-score
1,CATACACG,-0.0823
2,CTGCAGGA,-0.00999
3,AGGTCGAA,0.0331
4,GGGTGGCA,0.0491
5,GGTCCCAC,0.0558
6,AGACGCGC,-0.0156
7,CGACCCGA,0.0813
8,AAGAATGT,-0.149
9,CCAGGCGG,0.233
10,CGGGCTAC,-0.0342
11,AGCTTTTA,-0.106
12,CTAACTGA,-0.202
13,GATCAATA,-0.0113
14,CGTCCACG,-0.00241
15,CAAGTAGC,-0.262
16,ATAATTCG,0.0457
17,CGAGATAC,0.128
18,GAAATACA,-0.0151
19,GTGGTCAA,-0.144
20,AAGAAGAG,-0.0929
21,CTCTGGGA,-0.182
22,AGTCCACC,-0.00463
23,AGTGGGCA,-0.0328
24,ACCATGGA,-0.151
25,CGTGTCTA,0.0459

row,Sequence,PBM E-score
1,GCGTGGAC,-0.129
2,GCGACGCA,-0.126
3,TGTACTAA,-0.156
4,ACGCGAAC,0.0625
5,CGGTGCAA,0.0185
6,TGCCGCAA,0.0272
7,CTCACCAG,-0.147
8,ACCAAGTC,-0.00114
9,CCCCGACA,0.0765
10,AATTCCGT,0.449
11,CAATTCAC,0.0212
12,TGAGCACA,-0.0994
13,ACGTACCT,-0.31
14,CCTCACGC,0.0488
15,ACGCATGA,-0.0808
16,CTCAGCTA,-0.217
17,AGAAACTA,-0.168
18,TATGAGAA,-0.08
19,AGGAACAT,-0.186
20,TACAAAAA,-0.149
21,AACATTAG,-0.286
22,CGGGCCGC,0.146
23,AGCAGGCG,-0.00937
24,GACGTTGA,-0.0736
25,GCACAGGC,0.00512

row,Sequence,PBM E-score
1,CAGACGGC,0.0381
2,ATAAGACG,-0.156
3,ACCGCGCG,0.397
4,TATCCTGA,-0.107
5,ATTACCAG,-0.0103
6,ACATCTCA,-0.0808
7,TTCTAGAA,-0.0933
8,ACAACTGG,-0.00479
9,ACGGGTCC,0.186
10,CGTCACAC,-0.0834
11,CCCTCCAC,-0.139
12,CAGCAGGG,-0.135
13,GATATCCA,-0.00988
14,ATCAAAAA,0.0164
15,CGTGACTC,-0.279
16,GCCTTATA,0.0222
17,AATGATCT,-0.15
18,CGGATGGA,0.256
19,ACAACTCG,0.0266
20,ATCGAACC,0.108
21,ACAGTACC,-0.129
22,CCAAAAGC,-0.0476
23,CAGGCATC,-0.0951
24,AGCATACC,-0.0406
25,AGGATTAT,-0.184

row,Sequence,PBM E-score
1,CACAGTCA,-0.126
2,ACGTACCC,0.0101
3,CGTTTCAG,0.126
4,AGCATGAG,-0.163
5,CATTTACC,-0.0378
6,CGTCAAAG,-0.139
7,CCTTATAA,0.0389
8,TCAGCGGA,0.335
9,GTGTGGGA,-0.00678
10,CATTCATC,-0.0626
11,CGAAAACG,-0.0052
12,AATATGTG,0.121
13,GGCTGATA,0.189
14,AGGAGCGC,-0.0646
15,ACGAGCGG,0.107
16,GTACGGAC,0.278
17,GAATTACC,-0.065
18,GGCTGCCC,0.092
19,ATCGTGGC,-0.147
20,GGGGATTA,0.162
21,TGCAAAAA,-0.202
22,ATTTCTCG,0.216
23,CCGGTTGA,0.29
24,CGAGTATC,0.0267
25,GCGCCAGC,-0.186

row,Sequence,PBM E-score
1,ACAGGGGG,-0.284
2,AAATGGAT,-0.161
3,ATCCCGGA,0.417
4,CAACCAGC,-0.134
5,AGGTGGAG,-0.25
6,CGATGCGA,0.0866
7,GAAACAAA,0.0961
8,CTAGCTAG,-0.154
9,AACCAGGT,-0.196
10,ACTTTCGC,-0.182
11,AGGGCCGC,0.0126
12,AACCGCGC,0.231
13,GAAGTTCA,0.0399
14,AATAGCAT,-0.00437
15,AGCTCTGA,-0.191
16,AGACGACC,-0.121
17,AAAGAAAG,-0.18
18,AGCGACCT,-0.059
19,GCTAGTCC,-0.141
20,AATTCTCA,-0.142
21,CACCTGCC,0.00218
22,AGATGTAT,-0.117

# — the supplement of paper PMC3334620
